# Source: the supplement of paper PMC11417369
# ± gives the standard deviation of the averaged measurements. This is one part of the list.
# System: PfAP2-G AP2 domain (GST-tagged)
# Assay: gcPBM binding intensity (ln(normalized median fluorescence intensity)); higher = stronger DNA binding
# Method in brief: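 The highest Masliner-normalised natural-log median intensity across replicate spots of either probe orientation is reported as binding intensity. GST-tagged P. falciparum DNA-binding domains expressed in E. coli were applied for 1 h to an Agilent 4 × 180k array of primer-extended double-stranded 36-bp intergenic genomic probes plus negative controls, and bound protein was detected with Alexa488 anti-GST antibody and scanned at 488 nm.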
row,Sequence,gcPBM binding intensity (ln)
1,TCCTTTTCTTAATTTAAAAAATATAAAAAAAACGAA [CACACA_negctrl_site1821],9.84 ± 0.35
2,ATTTTTGTGTTTACACGTACGTGTAAATTATTTTTC [XGTACX_site1869],11.3 ± 0.57
3,TATTCATGTTTAAAAAGTACATATTATGGTAACATT [XGTACX_site4533],11.3 ± 0.9
4,ATAACAAAATAAAACACACACACAAATGTACAGATA [CACACA_site5358],11.1 ± 0.72
5,TCATAAATTAAACAAACACACACGTTCTTTTATTTA [CACACA_site713],9.84 ± 0.11
6,ATTTATTCAAATGGTTGTACTACAAATAAACATTAT [XGTACX_site3378],11.6 ± 1
7,AACAATGTTGTACATACACACACACTAATAAAAAAT [CACACA_site8758],11.4 ± 0.95
8,AAAAGGGATAAATGTGCGCACATGTTATATATATAT [GTGCAC_site9534],10.8 ± 0.43
9,ACATATCTACACAGTGGTACTTCCATTAATATATAC [XGTACX_site3827],11.1 ± 0.56
10,GCTCATTGAAGTTATACACACCAAATATGTAAATAT [CACACA_site7217],10.07 ± 0.064
11,AATACATACAGACACACACACACATATAAATAAATA [CACACA_site7642],10.2 ± 0.28
12,GTAAAAAAAGAGCACACACACAAAAACACCCACAAA [CACACA_site1292],10.7 ± 0.47
13,TTTATTCCCGCATATAGTACATATACCATTTAATGT [XGTACX_site7011],11 ± 0.55
14,AATATTTAAGTACTGGTGCGTGTATATAATGATTAA [GTGCAC_site9633],11 ± 0.5
15,AAACTTGTAAGAAACACACACACACGCATATAAATA [CACACA_site6518],10.2 ± 0.18
16,ATAAATAAAATATGCACACAAATATAGGAAACAACA [CACACA_site2561],10.35 ± 0.099
17,CATAAATACACTGTAGCGCACACGGCCAAAAAAAAA [CACACA_site8537],10.8 ± 0.52
18,ATATAATATGGTATTACACACTGTTATAAGTATGGC [CACACA_site2094],9.96 ± 0.085
19,TTAAATAAAATTTATTGTACATAAAATTAAATATAG [XGTACX_site3039],11.1 ± 0.65
20,CATAATTTACATAAAAGTACATATATATTAATGACG [XGTACX_site6247],11.3 ± 0.71
21,GTCACAAAATAAATTAAACACACAACATCATATATG [CACACA_site8182],10.1 ± 0.035
22,AATATAAATTTATATTGTACATATTTTATTATATGT [XGTACX_site905],11.2 ± 0.78

row,Sequence,gcPBM binding intensity (ln)
1,TAAATATTATTTATATGTACTGATATATTAAATAAA [XGTACX_site3446],10.9 ± 0.8
2,AATTAATATTTAAATTGTACATGAACATTTTAATGT [XGTACX_site462],10.9 ± 0.55
3,AAAATAAAATTTACTTGTACTAAAGGGATACGCGCA [XGTACX_site1453],11.1 ± 0.67
4,GTGTATCAATATGTAGGTACGTAAATATAGATAATA [XGTACX_site5526],11 ± 0.52
5,ATAATGTGTTAGGCGTGTACACAATTGTATGGTTTA [XGTACX_site2377],11.5 ± 0.88
6,TAATATAATATATAGGTGCAATATTAACAAAAATTT,10.1 ± 0.28
7,ATTAATATGAATAAATGTACAAATGAATGATTACAT [XGTACX_site6044],10.7 ± 0.32
8,ATATATATATATGAAAGTACACATCTATTTTTTCTT [XGTACX_site6059],11.3 ± 0.88
9,AAGGTAGATATATTTAGTACGTAATTTTTTTTTTTT [XGTACX_site7288],11.1 ± 0.67
10,AAATAAAATCATAATGTGCGCATATAAATTTGTAGG [GTGCAC_site9662],10.21 ± 0.078
11,TAAGTAAAAAATTAAAAAGATTACAGGGGGGGAAGG [XGTACX_negctrl_site491],11.5 ± 0.8
12,ATTTTAACGAATATATGTACATAAAAAAAAAAAAGA [XGTACX_site8750],11.4 ± 0.79
13,TTTCTTTAATATATAGTGCATGTAAATTTTACAATA [GTGCAC_site9679],10 ± 0.2
14,GACATAAGATAATTACACATTGTTTCCTCAATAATA [CACACA_negctrl_site1616],10 ± 0.13
15,AAAAAAAAAAACAGTTGTACATTTATTTATATATTA [XGTACX_site217],11.1 ± 0.61
16,AAAATAAGGACTGTTGTGCACTGGATTTGTGGTTAC [GTGCAC_site9830],10.6 ± 0.22
17,TAGAAAAAATAAAATAGTACACATCCAAAAAAAAAA [XGTACX_site7829],11.3 ± 0.67
18,TATATACAAATATGTACACACATTACAGATGTACAT [CACACA_site6586],11.8 ± 0.82
19,ATAATTAGGGTGTATTTCATTTCATTTCATTTTATT [CACACA_negctrl_site1418],10.4 ± 0.2
20,AATATATAAATATATACACACAAAAACATATATATA [CACACA_site1318],9.91 ± 0.085
21,CCAAACAAAAAAAAAAGTACATAAAACACCTATTTG [XGTACX_site5645],11.5 ± 0.91
22,CAAACAAATTGTGAAACACACATATATATATATATA [CACACA_site2001],10.2 ± 0.65

row,Sequence,gcPBM binding intensity (ln)
1,TTTTGTTTTTTCAATGTGCACTTAGGATGTTTTTAT [GTGCAC_site9565],10.4 ± 0.4
2,TAAATAAAAATACAGTGTACTTTTTTCTATTTAAAA [XGTACX_site3288],11.7 ± 1.2
3,ATCCAAATTAATAATAGTACTTTTAAGTCCTATGTA [XGTACX_site2452],11 ± 0.59
4,AACGTATTATTTATCTGTACAAAATAATAACGTATT [XGTACX_site813],10.7 ± 0.42
5,ATCATGGAAAAAACAAATGGGCTACATTACCTTTTG [GTGCAC_negctrl_site487],10.2 ± 0.16
6,TTGGAGTTCATATGTGGTACACATTTAAATATATTT [XGTACX_site5582],11.6 ± 0.97
7,GATATAAACGTATATGTACATATATATATATATATA [GTGCAC_negctrl_site186],11.3 ± 0.57
8,ATATATACATAGAATTGTACATAATTTATGTTCATT [XGTACX_site7426],10.8 ± 0.3
9,ATAATAAATGTCTTCAATGAAGTGGAAATGCTGTTA [TGCATGCA_negctrl_site238],10 ± 0.2
10,AAAAGGATTTTTTATACACACACTAACTAATGTATA [CACACA_site2356],9.985 ± 0.078
11,TCTTGTTATAATAATCAATATATGGGTATACTTATG [CACACA_negctrl_site1618],10.04 ± 0.099
12,AAAAAAATAAATAAGACACACACAAAAAAAAAAAAA [CACACA_site8404],9.81 ± 0.38
13,TTTTTTTTTTTTTTCTGTACTGATACTTATAGAGTT [XGTACX_site4736],11 ± 0.92
14,TAAATAATAATAAAATGTACATTATATATGTATATG [XGTACX_site8672],10.8 ± 0.42
15,TATTACTTTATATATACACACATATAACATAAATGC [CACACA_site3948],10.2 ± 0.23
16,CAGGTTCTTATATAGTGTACTATAGACATTCAATTG [XGTACX_site7239],11 ± 0.57
17,AAATAATAAATATATCGTACAAATATCATATATAAA [XGTACX_site2771],10.7 ± 0.38
18,TTTTTTCTTTTTATAACACACAGGTGAAAAATAATA [CACACA_site1850],10.1 ± 0.32
19,TCCTGTTGAGAATGGCGTACATATAAATATTATATA [XGTACX_site1841],11.5 ± 0.95
20,TTTCCTCATTTTATCATACACACTTGTTTATATGTG [CACACA_site8202],10.15 ± 0.021
21,TTTTATTCATCATATTGTACATTCTTGTATTTATAG [XGTACX_site8534],11 ± 0.48
22,CTTTTGCCCAAAAAGGTACACACCACAAAGTACATA [CACACA_site8169],11.9 ± 1.2

row,Sequence,gcPBM binding intensity (ln)
1,TATTTATAATTAAATACACACATATATTATAGATTT [CACACA_site6435],9.75 ± 0.18
2,TTGTATATACTATACACACACATACATACATACATA [CACACA_site814],10.2 ± 0.18
3,ATATACTTACATATTACACACAATATTTTTAAATGG [CACACA_site5916],10.04 ± 0.078
4,GAGATATAAAAGTGTACACATATTGTTATCCATATT [CACACA_site5441],11.8 ± 1
5,ACCCATATTCTTTTTACACACTTGAATAAAAAATAT [CACACA_site4797],10.2 ± 0.3
6,CACACTTTATAATGTTGTACGATACATTATACCAAA [XGTACX_site941],11.1 ± 0.54
7,ATCTCAAATATAATAAATTATTAGGTATATATATAT [CACACA_negctrl_site1828],9.96 ± 0.28
8,TATATATATATATATACATGCATACAATTTTATGAG [TGCATGCA_site466],10.2 ± 0.65
9,AATAAAAAATAAAAAAGTACATGATGAAAAGGTTTA [XGTACX_site7615],11.4 ± 0.8
10,TCCCTGATGTTATTTAATATACCATAAAAAAAAAAA [CACACA_negctrl_site1472],10.1 ± 0.45
11,TATATATATACAGTAGTGCATATATTTAAAATATAT [GTGCAC_site9999],10.2 ± 0.2
12,TATATATAAAAATATACACACTGTATTATTGTAATA [CACACA_site5959],9.79 ± 0.014
13,ATATATAAAAATAAATGTACATATTCATATGATGAT [XGTACX_site3411],11.2 ± 0.57
14,TTTTAAAAAAAAAAAAAATAAGATAAAATTAAATAA [GTGCAC_negctrl_site367],9.34 ± 0.26
15,ATAAAAAATATCACATAAAATAAAAAAAGAAAGGAT [XGTACX_negctrl_site294],9.995 ± 0.035
16,ATATAAGTATATCTATGTACATACAATATAAATGTA [XGTACX_site2153],11.2 ± 0.77
17,TATATACATACATATTGTACTTATAAAGATTAATTT [XGTACX_site2203],11 ± 0.61
18,TTATTATTATTACTTACGCACACTTTTTTTTTTATT [CACACA_site411],10.27 ± 0.028
19,ATCAAAAGAAGACACACACACATACCTATAAATATA [CACACA_site7736],10.1 ± 0.13
20,AATAGTTATTCCAGGTGTACATAACATATAATTTAC [XGTACX_site1340],11.5 ± 0.95
21,GACAATTATATGTAGGTGCATATACAAATTTTTTAA,10.1 ± 0.25
22,ATAGGATATTATTCCTGTACATATATATATATATAT [XGTACX_site2108],10.9 ± 0.64
